In all, about 410,000 compounds went through this assay and about 490 (0.12%) were called active. The shares of active, inactive and inconclusive entries below differ from those in the screen. Calls follow the shape of the dose curve; as a rule, active = well fitted inhibition curve with a large enough effect; inconclusive = small, poorly fitted or top-dose-only effect; inactive = flat fitted curve, though single readings scatter. Potencies of inconclusive entries are doubtful fits and often do not repeat.
Each compound was assayed against pyruvate kinase (Trypanosoma brucei) (UniProt Q57TT1) (assay: qHTS of Trypanosoma Brucei Inhibitors). Details: TbPYK enzyme, Kinase-Glo Plus ATP luminescence, 45 min; series mostly up to 76.8 µM.
In short: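 Activity of T. brucei pyruvate kinase was followed by Kinase-Glo Plus luminescence after the enzyme reacted 45 min at room temperature with 130 uM ADP (final) and substrate. Test compounds were added before ADP at multiple concentrations.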
In the case of `Cc1ccc(C(=O)NC(C)c2ccc3c(c2)OCO3)s1` (stereo not given), the Potency was inconclusive: 31.6 µM [inhibitor, partial curve, poor fit].
With `CC1(C(=O)NCCOc2ccccc2Cl)CC1(Cl)Cl` (stereo not given) the Potency was “inactive”.
With `COCCCNC(=O)C1Cc2cc(S(=O)(=O)N3CCCC3)ccc2N1C(C)=O` (stereo not given) the Potency was inconclusive: 50.1 µM [inhibitor, single point].
With `Cc1ccc(C)c(S(=O)(=O)Nc2cc(SCC(=O)O)c(O)c3ccccc23)c1` the Potency was active: 15.8 µM.
For `Cc1cccc(-n2cc[nH]c2=S)c1`, the Potency was inconclusive: 17.8 µM [inhibitor, partial curve].
`COc1cccc(NC(=S)N2CCn3c(nc4ccccc43)C2)c1` was tested, and the Potency was inconclusive: 31.6 µM [inhibitor, partial curve].
For `O=C(/C=C/c1ccc(Cl)cc1)NCc1ccco1`, the Potency was inconclusive: 50.1 µM [inhibitor, single point].
With `CCCc1cc(=O)oc2cc(C)cc(OC(C)C(=O)NCC(O)c3ccccc3)c12` (stereo not given) the Potency was “inactive”.
`O=C(/C=C/c1ccco1)Nc1cccnc1Cl` was tested, and the Potency was inconclusive: 35.5 µM [inhibitor, partial curve, poor fit].
For `COc1cccc(C2CC(=O)C3=C(C2)Nc2ccccc2N(C(=O)CCC(=O)O)C3c2ccc(F)cc2)c1` (stereo not given), the Potency was inconclusive: 50.1 µM [inhibitor, single point].
For `COc1ccc(C=C2C(=O)c3ccccc3C2=O)cc1O`, the Potency was inconclusive: 35.5 µM [inhibitor, partial curve].
For `CCN1CCN(c2ncnc3scc(-c4ccc(OC)cc4)c23)CC1`, the Potency was inconclusive: 44.7 µM [inhibitor, single point].
In the case of `CCCCP(=O)(O)CCC(=O)O`, the Potency was inconclusive: 1.78 µM [inhibitor, partial curve, poor fit].
For `C/C(=N/NC(=O)c1ccc(Br)o1)c1cccc(NC(=O)c2ccc(F)cc2)c1`, the Potency was “inactive”.
For `Cc1ccc(C(C[N+](=O)[O-])Sc2ccc(N)cc2)cc1` (stereo not given), the Potency was inconclusive: 20 µM [inhibitor, partial curve, poor fit].
With `CCN1C(=O)/C(=C/c2ccc(C)o2)N(C)C1=S` the Potency was inconclusive: 17.8 µM [inhibitor, partial curve, poor fit].
For `C=CCNC(=S)NNC(=O)c1cccn(Cc2cccc(Cl)c2)c1=O`, the Potency was inconclusive: 22.4 µM [inhibitor, partial curve].
`Cc1cccc(OCc2n[nH]c(=S)n2C2CCCCC2)c1` was tested, and the Potency was active: 12.6 µM.
For `CN(C)CC/C=C1\c2ccccc2COc2ccc(CC(=O)O)cc21`, the Potency was “inactive”.
`Cc1ccccc1OCc1nnc(SCc2cc(=O)[nH]c3ccccc23)o1` was tested, and the Potency was inconclusive: 50.1 µM [inhibitor, single point].
For `Cc1ccc(Nc2nc3ccccc3n3nnnc23)cc1`, the Potency was “inactive”.
For `Cc1cccc(-c2nc3c(c(SCC(N)=O)n2)CCCC3)c1`, the Potency was inconclusive: 50.1 µM [inhibitor, single point].
In the case of `COc1cc(/C=N/Nc2cccc3cccnc23)cc(OC)c1O`, the Potency was inconclusive: 25.1 µM [inhibitor, partial curve, poor fit].
In the case of `c1ccc(C[n+]2csc3ccccc32)cc1`, the Potency was inconclusive: 20 µM [inhibitor, partial curve, poor fit].
In the case of `COc1ccc(C(=O)Nc2ccc(N3CCCC3)cc2)cc1OC`, the Potency was inconclusive: 11.2 µM [inhibitor, partial curve].
`Cc1ccc(N2CC(NC(=O)N3CCN(C(=O)c4ccco4)CC3)CC2=O)cc1` (stereo not given) was tested, and the Potency was “inactive”.
`CC(C)(C)c1ccc(C(=O)N/C(=C\c2ccco2)C(=O)Nc2ccccc2C(=O)O)cc1` was tested, and the Potency was inconclusive: 28.2 µM [inhibitor, partial curve].
For `O=C1NC(=O)C(=Cc2coc3ccccc3c2=O)C(=O)N1`, the Potency was inconclusive: 39.8 µM [inhibitor, partial curve, poor fit].
With `COc1cccc(CNn2cn[nH]c2=S)c1OCc1ccccc1` the Potency was inconclusive: 2.82 µM [inhibitor, full curve, poor fit].
`Cc1cc(Cl)ccc1N=c1ssnc1Cl` was tested, and the Potency was inconclusive: 31.6 µM [inhibitor, partial curve, poor fit].
In the case of `CCC1Sc2ccc(S(=O)(=O)Nc3ccc(OC)c(OC)c3)cc2NC1=O` (stereo not given), the Potency was “inactive”.
`COC(=O)c1ccc(NC(=O)c2cccc(OC)c2)cc1` was tested, and the Potency was inconclusive: 15.8 µM [inhibitor, partial curve, poor fit].
For `CCOC(=O)c1sc(N)c(C(=O)Nc2ccccc2)c1C`, the Potency was inconclusive: 17.8 µM [inhibitor, partial curve].
In the case of `Oc1ccc2cccnc2c1`, the Potency was “inactive”.
In the case of `CC(C)n1c(=O)[nH][nH]c1=S`, the Potency was active: 3.55 µM.
`CC1(C)Cc2c(sc3ncn4c(=S)[nH]nc4c23)CO1` was tested, and the Potency was inconclusive: 8.91 µM [inhibitor, partial curve].
With `Cc1ccc(C2C=C(c3ccccc3)Nc3ncnn32)cc1` (stereo not given) the Potency was “inactive”.
`CCN1C(=NCCCOC(C)C)N[C@@H](CCc2ccccc2)[C@H](C(=O)NCCCOC(C)C)[C@H]1C` was tested, and the Potency was inconclusive: 39.8 µM [inhibitor, single point].
With `CN1CCN(C(=O)c2ccc3c(=O)n(CCc4ccccc4)c(=S)[nH]c3c2)CC1` the Potency was inconclusive: 14.1 µM [inhibitor, partial curve, poor fit].
With `Cc1ccc(N=Cc2c(C)[nH]n(-c3nc4ccccc4[nH]3)c2=O)cc1` the Potency was inconclusive: 31.6 µM [inhibitor, partial curve, poor fit].
`COC(=O)/C(=C/c1ccco1)NC(=O)c1ccco1` was tested, and the Potency was “inactive”.
`COc1ccc(C2NC(=O)c3sc(=S)n(-c4ccccc4)c3N2)cc1` (stereo not given) was tested, and the Potency was inconclusive: 15.8 µM [inhibitor, partial curve].
In the case of `COc1ccc(C2Nc3ccccc3C(=O)N2c2ccc(C)cc2)cc1COc1ccccn1` (stereo not given), the Potency was “inactive”.
With `CCOc1ccc(S(=O)(=O)N(CC)CC)cc1NS(=O)(=O)c1ccc(F)c(F)c1F` the Potency was inconclusive: 35.5 µM [inhibitor, single point].
With `COCCn1c(=S)[nH]c2sc3c(c2c1=O)CCCC3` the Potency was inconclusive: 17.8 µM [inhibitor, partial curve].
In the case of `O=C(COc1ccc2c(c1)OCO2)Nc1nccs1`, the Potency was inconclusive: 28.2 µM [inhibitor, single point].
For `S=C(c1ccc(Br)cc1)N1CCN(Cc2ccccc2)CC1`, the Potency was inconclusive: 15.8 µM [inhibitor, partial curve, poor fit].
In the case of `COc1ccc(NC(=O)c2c(NCc3cccs3)sc3c2CCC(C)C3)c(OC)c1` (stereo not given), the Potency was inconclusive: 20 µM [inhibitor, partial curve].
`CC(C)(C)Cc1nnc(NC(=O)CSc2ccccc2)s1` was tested, and the Potency was inconclusive: 28.2 µM [inhibitor, partial curve, poor fit].
With `O=C(CCNC(=O)Cn1cnc2ccccc2c1=O)NCC1COc2ccccc2O1` (stereo not given) the Potency was inconclusive: 22.4 µM [inhibitor, partial curve, poor fit].
With `NS(=O)(=O)c1ccc(CNC(=O)/C=C/c2ccco2)cc1` the Potency was inconclusive: 35.5 µM [inhibitor, single point].
In the case of `Cc1ccc(NC(=O)/C=C\C(=O)N(c2ccc(C(C)C)cc2)C(C(=O)NCc2ccco2)c2ccc(Cl)cc2)cc1` (stereo not given), the Potency was “inactive”.
`O=S(=O)(NC1CCCCCCC1)OCC(Cl)(Cl)Cl` was tested, and the Potency was “inactive”.
For `CCn1c(CCCOc2ccc(Cl)cc2Cl)n[nH]c1=S`, the Potency was inconclusive: 11.2 µM [inhibitor, partial curve, poor fit].
In the case of `COCCCN(C(=S)Nc1cc(Cl)cc(Cl)c1)C(C)c1ccccn1` (stereo not given), the Potency was inconclusive: 15.8 µM [inhibitor, partial curve, poor fit].
With `CC1CCCN(C(=O)c2cc3ccc4cccnc4c3[nH]2)C1` (stereo not given) the Potency was inconclusive: 35.5 µM [inhibitor, single point].
`O=C(O)c1cccc2sc3cc(Cl)ccc3c(=O)c12` was tested, and the Potency was “inactive”.
`O=C(NCc1n[nH]c(=S)n1-c1ccc(Br)cc1)c1cccs1` was tested, and the Potency was inconclusive: 6.31 µM [inhibitor, partial curve].
With `COc1ccc(N2CC(C(=O)Nc3nnc(SCC(=O)NCC4CCCO4)s3)CC2=O)cc1` (stereo not given) the Potency was inconclusive: 25.1 µM [inhibitor, partial curve, poor fit].
In the case of `CCOC(=O)C1(Cc2cccc(Cl)c2)CCCN(C(=O)c2cccc(C)n2)C1` (stereo not given), the Potency was “inactive”.
`NC(=O)c1ccccc1N/C=C/C(=O)c1ccc(Cl)cc1` was tested, and the Potency was “inactive”.
`COc1c(Cl)cc(Cl)cc1C(=O)Nc1ccc(C(=O)O)cc1` was tested, and the Potency was inconclusive: 0.891 µM [inhibitor, full curve, poor fit].
For `CC1CCCN(CC(=O)Nc2cc(S(=O)(=O)N3CCOCC3)ccc2N2CCCC2)C1` (stereo not given), the Potency was “inactive”.
`FC(F)Sc1nc2ccccc2[nH]1` was tested, and the Potency was inconclusive: 12.6 µM [inhibitor, partial curve, poor fit].
For `CC(C)(C)OC(=O)C1=CC[C@@H](c2ccc(Cl)c(Cl)c2)N(S(=O)(=O)c2ccc(F)cc2)[C@H]1c1cccc(F)c1`, the Potency was “inactive”.
`CCS(=O)(=O)c1cc([N+](=O)[O-])c(Sc2ccccc2N)s1` was tested, and the Potency was inconclusive: 3.16 µM [inhibitor, full curve, poor fit].
For `CCOC(=O)c1c(S(=O)(=O)N2CCC(C(=O)NCc3cccc(OC)c3)CC2)c(C)n(C)c1C`, the Potency was “inactive”.
With `COc1cccc(N2CCN(Cc3nc(N)nc(Nc4ccccc4)n3)CC2)c1` the Potency was “inactive”.
In the case of `O=C1C=CC(=O)N1c1ccccc1N1C(=O)C=CC1=O`, the Potency was inconclusive: 2.82 µM [inhibitor, full curve].
For `Cc1nc(NC(=O)c2cc3ccccc3o2)sc1C`, the Potency was “inactive”.

From PubChem BioAssay AID624173 (National Center for Advancing Translational Sciences (NCATS), 2012)
Also: nearly all actives have a fitted effect of over 50% in size.
Potency is read from the fitted curve at half-maximal effect; tags tell the direction and shape of the fitted curve.
